Assay results taken from a collection of fitness landscapes (doi:10.1126/science.1257360).
This is one part of the list.

B1: PhoQ; a variant is named by its letters at X, in order, P23837 (parent)
chain: MKKLLRLFFPLSLRVRFLLATAAVVLVLSLAYGMVALIGYSVSFDKTTFRLLRGESNLFYTLAKWENNKLHVELPENIDKQSPTMTLIYDENGQLLWAQRDVPWLMKMIQPDWLKSNGFHEIEADVNDTSLLLSGDHSIQQQLQEVREDDDDAEMTHSVAVNVYPATSRMPKLTIVVVDTIPVELKSSYMVWSWFIYVLSANLLLVIPLLWVAAWWSLRPIEALAKEVRELEEHNRELLNPATTRELTSLVRNLNRLLKSERERYDKYRTTLTDLTHSLKTPLXXLQXXLRSLRSEKMSVSDAEPVMLEQISRISQQIGYYLHRASMRGGTLLSRELHPVAPLLDNLTSALNKVYQRKGVNISLDISPEISFVGEQNDFVEVMGNVLDNACKYCLEFVEISARQTDEHLYIVVEDDGPGIPLSKREVIFDRGQRVDTLRPGQGVGLAVAREITEQYEGKIVAGESMLGGARMEVIFGRQHSAPKDE

Variants of: B1
Assay: enrichment ratio after two sorts for PhoP signalling (ratio (wild type AVST 3.29)); higher = more functional
Settings: with PhoP (E. coli)

KSQI and EHRA cannot be ordered by enrichment ratio: no more than 0.25 for the first, no more than 0.25 for the second.

LSAF and MWAC cannot be ordered by enrichment ratio: no more than 0.25 for the first, no more than 0.25 for the second.

SNTP and KPCL cannot be ordered by enrichment ratio: no more than 0.25 for the first, no more than 0.25 for the second.

Compared with AKCS, SHPG is lower in enrichment ratio: 3.9 for the first, no more than 0.25 for the second.

YCVV and MGRI cannot be ordered by enrichment ratio: no more than 0.25 for the first, no more than 0.25 for the second.

HVIR and WWRH cannot be ordered by enrichment ratio: no more than 0.25 for the first, no more than 0.25 for the second.

AFMM and NLMG cannot be ordered by enrichment ratio: no more than 0.25 for the first, no more than 0.25 for the second.

LNYT and GRSQ cannot be ordered by enrichment ratio: no more than 0.25 for the first, no more than 0.25 for the second.

SLPG and YWQG cannot be ordered by enrichment ratio: no more than 0.25 for the first, no more than 0.25 for the second.

LKFI and TRSQ cannot be ordered by enrichment ratio: no more than 0.25 for the first, no more than 0.25 for the second.

RMPW and HHMG cannot be ordered by enrichment ratio: no more than 0.25 for the first, no more than 0.25 for the second.

PRKA and DAMP cannot be ordered by enrichment ratio: no more than 0.25 for the first, no more than 0.25 for the second.

WYFS and IHSW cannot be ordered by enrichment ratio: no more than 0.25 for the first, no more than 0.25 for the second.

Going from QGSG to WGPP, the enrichment ratio falls from 2.59 to no more than 0.25.

RVAP and FGDD cannot be ordered by enrichment ratio: no more than 0.25 for the first, no more than 0.25 for the second.

AQED and TLWK cannot be ordered by enrichment ratio: no more than 0.25 for the first, no more than 0.25 for the second.

Going from LYCF to SQVH, the enrichment ratio rises from no more than 0.25 to 5.84.

Compared with QLMF, VAYM is higher in enrichment ratio: no more than 0.25 for the first, 1.24 for the second.

DIDY and LILK cannot be ordered by enrichment ratio: no more than 0.25 for the first, no more than 0.25 for the second.

SMVD and PSQQ cannot be ordered by enrichment ratio: no more than 0.25 for the first, no more than 0.25 for the second.

MMNH and FHWT cannot be ordered by enrichment ratio: no more than 0.25 for the first, no more than 0.25 for the second.

NSAL and VLSA cannot be ordered by enrichment ratio: no more than 0.25 for the first, no more than 0.25 for the second.

Going from SSTL to TMGR, the enrichment ratio falls from 14 to no more than 0.25.

First: MLFW
Second: PRGL
The enrichment ratio of the first is higher: 1.07 for the first, no more than 0.25 for the second.

FGNE and KDSK cannot be ordered by enrichment ratio: no more than 0.25 for the first, no more than 0.25 for the second.

HSWW and ALGR cannot be ordered by enrichment ratio: no more than 0.25 for the first, no more than 0.25 for the second.

MDKH and LMMR cannot be ordered by enrichment ratio: no more than 0.25 for the first, no more than 0.25 for the second.

PKPG and YGPV cannot be ordered by enrichment ratio: no more than 0.25 for the first, no more than 0.25 for the second.

NGMK and LHGD cannot be ordered by enrichment ratio: no more than 0.25 for the first, no more than 0.25 for the second.

PEGN and YMEC cannot be ordered by enrichment ratio: no more than 0.25 for the first, no more than 0.25 for the second.

GALP and MRRF cannot be ordered by enrichment ratio: no more than 0.25 for the first, no more than 0.25 for the second.

PPQN and ETQF cannot be ordered by enrichment ratio: no more than 0.25 for the first, no more than 0.25 for the second.

KYPL and HKWR cannot be ordered by enrichment ratio: no more than 0.25 for the first, no more than 0.25 for the second.

HRGN and TLQP cannot be ordered by enrichment ratio: no more than 0.25 for the first, no more than 0.25 for the second.

PWPM and KPAR cannot be ordered by enrichment ratio: no more than 0.25 for the first, no more than 0.25 for the second.

VAAA and FLTT cannot be ordered by enrichment ratio: no more than 0.25 for the first, no more than 0.25 for the second.

GAVI and IMHP cannot be ordered by enrichment ratio: no more than 0.25 for the first, no more than 0.25 for the second.

LKNP and KLTT cannot be ordered by enrichment ratio: no more than 0.25 for the first, no more than 0.25 for the second.

LKWK and DVMI cannot be ordered by enrichment ratio: no more than 0.25 for the first, no more than 0.25 for the second.

KIFQ and VDMS cannot be ordered by enrichment ratio: no more than 0.25 for the first, no more than 0.25 for the second.

YAHA and EQED cannot be ordered by enrichment ratio: no more than 0.25 for the first, no more than 0.25 for the second.

PHVP and GFQK cannot be ordered by enrichment ratio: no more than 0.25 for the first, no more than 0.25 for the second.

GAFT and WCPH cannot be ordered by enrichment ratio: no more than 0.25 for the first, no more than 0.25 for the second.

NCPD and MFIS cannot be ordered by enrichment ratio: no more than 0.25 for the first, no more than 0.25 for the second.

First: MCLA
Second: TMRY
The enrichment ratio of the first is higher: 3.12 for the first, no more than 0.25 for the second.

GSGD and IMRV cannot be ordered by enrichment ratio: no more than 0.25 for the first, no more than 0.25 for the second.

GHYY and FAHA cannot be ordered by enrichment ratio: no more than 0.25 for the first, no more than 0.25 for the second.

Compared with YCTL, AITD is lower in enrichment ratio: 0.295 for the first, no more than 0.25 for the second.

VQTR and MYSA cannot be ordered by enrichment ratio: no more than 0.25 for the first, no more than 0.25 for the second.

NRGT and QCQG cannot be ordered by enrichment ratio: no more than 0.25 for the first, no more than 0.25 for the second.

Going from TLSQ to FYEH, the enrichment ratio falls from 9.34 to no more than 0.25.

IGAH and IMCM cannot be ordered by enrichment ratio: no more than 0.25 for the first, no more than 0.25 for the second.

ANRG and HRGR cannot be ordered by enrichment ratio: no more than 0.25 for the first, no more than 0.25 for the second.

YITI and HSSR cannot be ordered by enrichment ratio: no more than 0.25 for the first, no more than 0.25 for the second.

HTWN and WQFN cannot be ordered by enrichment ratio: no more than 0.25 for the first, no more than 0.25 for the second.

Going from EPYY to TETH, the enrichment ratio rises from no more than 0.25 to 10.3.

NNSW and HGFK cannot be ordered by enrichment ratio: no more than 0.25 for the first, no more than 0.25 for the second.

Going from DDSE to SVGY, the enrichment ratio rises from 1.96 to 4.82.

KVGT and QFNL cannot be ordered by enrichment ratio: no more than 0.25 for the first, no more than 0.25 for the second.

NSED and MWFI cannot be ordered by enrichment ratio: no more than 0.25 for the first, no more than 0.25 for the second.

MGND and WEGV cannot be ordered by enrichment ratio: no more than 0.25 for the first, no more than 0.25 for the second.

Compared with ISLK, GDIQ is higher in enrichment ratio: no more than 0.25 for the first, 17.5 for the second.

LFEW and NYIR cannot be ordered by enrichment ratio: no more than 0.25 for the first, no more than 0.25 for the second.

EIEP and VCHN cannot be ordered by enrichment ratio: no more than 0.25 for the first, no more than 0.25 for the second.

FCGS and HLYF cannot be ordered by enrichment ratio: no more than 0.25 for the first, no more than 0.25 for the second.

GVCI and WVYK cannot be ordered by enrichment ratio: no more than 0.25 for the first, no more than 0.25 for the second.

First: SCPW
Second: YLCQ
The enrichment ratio of the first is lower: no more than 0.25 for the first, 0.342 for the second.

WPSC and RVGY cannot be ordered by enrichment ratio: no more than 0.25 for the first, no more than 0.25 for the second.

IECK and TYCD cannot be ordered by enrichment ratio: no more than 0.25 for the first, no more than 0.25 for the second.

Going from GNQL to LEYG, the enrichment ratio rises from no more than 0.25 to 4.21.

KLSK and NFGL cannot be ordered by enrichment ratio: no more than 0.25 for the first, no more than 0.25 for the second.

NNGV and IPQG cannot be ordered by enrichment ratio: no more than 0.25 for the first, no more than 0.25 for the second.

WWWP and NFSN cannot be ordered by enrichment ratio: no more than 0.25 for the first, no more than 0.25 for the second.

Going from WPGL to AMVP, the enrichment ratio rises from no more than 0.25 to 0.854.

YEFH and TYDY cannot be ordered by enrichment ratio: no more than 0.25 for the first, no more than 0.25 for the second.

KTQK and CLFG cannot be ordered by enrichment ratio: no more than 0.25 for the first, no more than 0.25 for the second.

VWPD and PQGY cannot be ordered by enrichment ratio: no more than 0.25 for the first, no more than 0.25 for the second.

Going from ATDL to LVWA, the enrichment ratio falls from 1.31 to no more than 0.25.

RQIH and RLIK cannot be ordered by enrichment ratio: no more than 0.25 for the first, no more than 0.25 for the second.

WYSG and TDIE cannot be ordered by enrichment ratio: no more than 0.25 for the first, no more than 0.25 for the second.

KRGT and GRSF cannot be ordered by enrichment ratio: no more than 0.25 for the first, no more than 0.25 for the second.

HMLN and KYDP cannot be ordered by enrichment ratio: no more than 0.25 for the first, no more than 0.25 for the second.

MFCY and IMDF cannot be ordered by enrichment ratio: no more than 0.25 for the first, no more than 0.25 for the second.

QMVT and KCNV cannot be ordered by enrichment ratio: no more than 0.25 for the first, no more than 0.25 for the second.

QAIY and WAWL cannot be ordered by enrichment ratio: no more than 0.25 for the first, no more than 0.25 for the second.

DHHS and LTEM cannot be ordered by enrichment ratio: no more than 0.25 for the first, no more than 0.25 for the second.

WFWC and ECGW cannot be ordered by enrichment ratio: no more than 0.25 for the first, no more than 0.25 for the second.

Going from RTPS to LHSK, the enrichment ratio falls from 0.958 to no more than 0.25.

WQHW and AGYV cannot be ordered by enrichment ratio: no more than 0.25 for the first, no more than 0.25 for the second.

YHIL and DPCM cannot be ordered by enrichment ratio: no more than 0.25 for the first, no more than 0.25 for the second.

HTWH and RLMN cannot be ordered by enrichment ratio: no more than 0.25 for the first, no more than 0.25 for the second.

HMAR and SKGE cannot be ordered by enrichment ratio: no more than 0.25 for the first, no more than 0.25 for the second.

TFQP and PQIM cannot be ordered by enrichment ratio: no more than 0.25 for the first, no more than 0.25 for the second.

ISRR and LLVE cannot be ordered by enrichment ratio: no more than 0.25 for the first, no more than 0.25 for the second.

HCTW and QFHP cannot be ordered by enrichment ratio: no more than 0.25 for the first, no more than 0.25 for the second.

VAKN and VFAH cannot be ordered by enrichment ratio: no more than 0.25 for the first, no more than 0.25 for the second.

HSKW and RMTV cannot be ordered by enrichment ratio: no more than 0.25 for the first, no more than 0.25 for the second.

PVVQ was tested, and the enrichment ratio was no more than 0.25.
